# From the supplement of paper PMC4166925
# ± gives the standard deviation of the averaged measurements. The full ranking holds about 33,000 sequences; the median of “E-score (dimensionless, -0.5 to 0.5)” is about -0.046, and the highest 2% start at about 0.36. The list shows a part of the results.
# System: T1, SpTbr T-box DNA-binding domain (GST fusion)
# T1 sequence: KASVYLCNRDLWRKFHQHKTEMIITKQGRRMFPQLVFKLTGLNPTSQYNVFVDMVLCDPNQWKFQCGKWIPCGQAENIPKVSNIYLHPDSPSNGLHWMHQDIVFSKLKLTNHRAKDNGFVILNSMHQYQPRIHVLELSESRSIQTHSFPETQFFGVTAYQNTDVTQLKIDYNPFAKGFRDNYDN
# Test: PBM E-score of 8-mer (E-score (dimensionless, -0.5 to 0.5)); Tbr is Tbrain of the sea star Patiria miniata (Pm) or the sea urchin Strongylocentrotus purpuratus (Sp); higher = stronger binding preference; most listed sequences are background and not binding sites
# Details: the construct has about 5 more residues each side
# Summary of the method: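 Primer extension turned Universal Agilent oligonucleotide arrays double-stranded. They were incubated with 200 nM protein in PBS (pH 7.5); the protein was a GST-fused Tbr T-box DNA-binding domain expressed in BL21 E. coli at 20 °C and purified on glutathione. Every ungapped 8-mer was scored from the scanned, quantified probe intensities, and the Universal PBM Analysis Suite gave each an enrichment E-score averaged over duplicate arrays.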
row,Sequence,PBM E-score of 8-mer
1,ACTCGCTC,-0.0581 ± 0.083
2,GATTAGGA,-0.286 ± 0.01
3,CTCAGGAA,-0.12 ± 0.02
4,AGTTTAAG,-0.0915 ± 0.091
5,CTGAGACA,0.0861 ± 0.095
6,TTAAGCAA,-0.151 ± 0.02
7,CCGCGTTA,0.101 ± 0.023
8,ATCCAGTG,-0.251 ± 0.028
9,GCGCTCGA,-0.0292 ± 0.0073
10,TAATTCTA,-0.153 ± 0.018
11,CTCCTGGA,-0.0475 ± 0.01
12,GCCGGACA,-0.253 ± 0.031
13,ACGTCGGG,0.0128 ± 0.04
14,AAAAGGTT,-0.0952 ± 0.076
15,ATTCATCC,-0.234 ± 0.053
16,AGATAGTC,-0.169 ± 0.04
17,CCCTGAGG,-0.0752 ± 0.00081
18,CCATAATA,-0.0882 ± 0.037
19,CAGTGATC,0.0236 ± 0.038
20,TCTAGAGA,-0.0315 ± 0.044
21,CGTATTAG,-0.0646 ± 0.04
22,GAATTACA,-0.033 ± 0.044
23,GCGGGAAA,0.135 ± 0.0056
24,ATGTCGGA,-0.011 ± 0.048
25,GGCTGAAA,-0.173 ± 0.043

row,Sequence,PBM E-score of 8-mer
1,CTCTCGCC,0.251 ± 0.0045
2,AGATCGAA,0.0086 ± 0.046
3,CGTGACCC,0.167 ± 0.075
4,AGTGGCCG,0.0415 ± 0.0067
5,CCCATCGC,-0.0223 ± 0.091
6,GTTTCTTA,0.126 ± 0.008
7,ACGGTTAT,0.0286 ± 0.041
8,CAATGAGA,-0.141 ± 0.11
9,ACCGTCCT,-0.134 ± 0.022
10,AAATTGGA,-0.126 ± 0.061
11,ACCAGGTA,-0.0553 ± 0.093
12,AACGATTG,-0.00432 ± 0.013
13,AGGTAGTG,0.123 ± 0.044
14,CCTTGGAG,-0.1541 ± 0.00054
15,CGGAGGGA,-0.167 ± 0.056
16,GAGAAACA,0.102 ± 0.05
17,GAGTGTGA,0.478 ± 0.0052
18,CGGCCAAC,-0.105 ± 0.036
19,ATCCCTAA,-0.286 ± 0.011
20,GCAGCGGC,-0.1 ± 0.056
21,AAAGCCGC,0.14 ± 0.033
22,CACACGTA,0.356 ± 0.0042
23,CCGTTGCG,0.0553 ± 0.073
24,AACTCGGT,-0.0789 ± 0.061
25,AATGAAAT,-0.144 ± 0.068

row,Sequence,PBM E-score of 8-mer
1,TCTCTGAA,-0.155 ± 0.031
2,GCTCTACC,0.0202 ± 0.014
3,AAAAAGAA,-0.159 ± 0.025
4,AGTATCCC,-0.0802 ± 0.01
5,AACATTGT,0.114 ± 0.037
6,ACATGATG,0.172 ± 0.043
7,AATTACGG,-0.121 ± 0.08
8,ATAGAATC,-0.0935 ± 0.013
9,GTTTTTAA,-0.153 ± 0.063
10,AACCCATA,0.0674 ± 0.036
11,ACCCCTCG,0.11 ± 0.08
12,GCTCCACC,0.0333 ± 0.025
13,AGCTCAAC,-0.0474 ± 0.074
14,AGTGACTG,0.172 ± 0.0081
15,ACCGTCGG,-0.252 ± 0.038
16,ATCGCCGG,-0.086 ± 0.026
17,AGTGCTGC,0.0756 ± 0.0053
18,CAGTTATC,0.0747 ± 0.012
19,AAAATCTA,0.0815 ± 0.0069
20,AAACTCTA,-0.0434 ± 0.028
21,CAGGTTAA,-0.134 ± 0.11
22,CTATGAGA,-0.252 ± 0.033
23,ACGAGAGA,-0.106 ± 0.032
24,ATGATGGC,-0.0598 ± 0.0071
25,AGCTACAA,-0.161 ± 0.011

row,Sequence,PBM E-score of 8-mer
1,AGCGGCCA,0.0509 ± 0.027
2,CGATCCCC,0.12 ± 0.014
3,AAAATAGA,-0.358 ± 0.028
4,ATTCAGTC,-0.147 ± 0.033
5,AAATCACA,0.333 ± 0.03
6,GATGCTAC,-0.0905 ± 0.087
7,CCCGTGCC,-0.0819 ± 0.033
8,CAAAAGTG,0.257 ± 0.027
9,CGCTGTCC,-0.224 ± 0.018
10,GAGACTCC,-0.0351 ± 0.085
11,AGGAGAGA,0.00496 ± 0.029
12,GTCAAGTA,0.185 ± 0.016
13,AAAGAGTG,0.216 ± 0.048
14,CACTGCGC,0.196 ± 0.016
15,GTCCACTA,-0.1 ± 0.0077
16,AGTAAAAG,-0.0786 ± 0.051
17,CGAAAGTC,0.00178 ± 0.00011
18,AACCCAGG,-0.22 ± 0.0083
19,AGTCGGTA,0.0634 ± 0.0058
20,ATTGCGAA,0.284 ± 0.041
21,TGGAAGAA,-0.263 ± 0.024
22,ATCATGCC,-0.225 ± 0.071
23,ACTCTACC,-0.169 ± 0.019
24,GGTGGTAA,0.3496 ± 0.00075
25,ATAATTAG,-0.0957 ± 0.013

row,Sequence,PBM E-score of 8-mer
1,ACCATGTG,0.28 ± 0.021
2,TCCCATCA,-0.0491 ± 0.029
3,AAAGCGTC,0.175 ± 0.026
4,GCGTGGAA,0.176 ± 0.017
5,GTACAAAC,-0.163 ± 0.0071
6,GGCATGTA,-0.271 ± 0.038
7,TATGGTAA,-0.207 ± 0.048
8,GTAAGAAA,0.00863 ± 0.026
9,CATCCACC,-0.0953 ± 0.048
10,CCAGACCG,-0.267 ± 0.075
11,CATAACCA,-0.043 ± 0.017
12,GTGAGTCA,0.23905 ± 1.4e-05
13,ATTAGTGA,0.0863 ± 0.02
14,AACGAGTC,-0.0837 ± 0.041
15,AGCATTGG,-0.112 ± 0.011
16,AGCCTCGC,-0.00325 ± 0.036
17,AGCCCGGC,-0.0877 ± 0.11
18,AAAGTACT,-0.197 ± 0.068
19,CCCACAGC,0.0158 ± 0.025
20,GCGGAATA,-0.0725 ± 0.013
21,GCATGAAC,0.0836 ± 0.013
22,CGGCGTTC,-0.0378 ± 0.017
23,CCTAGTAG,-0.036 ± 0.12
24,ATTGATAA,-0.189 ± 0.017
25,CCCGACGA,-0.0481 ± 0.12

row,Sequence,PBM E-score of 8-mer
1,CCTGGTAA,0.0572 ± 0.0035
2,CAAGACGG,-0.02 ± 0.1
3,ACCGAATA,0.0186 ± 0.046
4,GTCCCGGA,-0.2 ± 0.059
5,ACCATCGT,-0.0427 ± 0.071
6,CAGATGGG,-0.107 ± 0.061
7,CACCATGC,0.232 ± 0.025
8,AGCACAAA,-0.155 ± 0.039
9,GAGTTTTA,0.0474 ± 0.05
10,ACACATAA,0.269 ± 0.016
11,CCCCTTAA,-0.192 ± 0.015
12,TCTCGGCA,0.0587 ± 0.028
13,TCACGCGA,0.3949 ± 0.0026
14,AACGGGAG,0.00903 ± 0.026
15,GCACGCAC,0.259 ± 0.029
16,GCGGGACC,0.00436 ± 0.015
17,GAGCTTTA,-0.1915 ± 0.0013
18,TAGACGGA,-0.272 ± 0.0051
19,AAGCTGCT,-0.00363 ± 0.18
20,ACACGTAG,0.1948 ± 0.0013
21,CCTCGAGA,-0.0435 ± 0.057
22,ACCTCACT,0.233 ± 0.069
23,GAGGCTTA,-0.102 ± 0.039
24,CGCAGTCC,-0.0737 ± 0.0086
25,CTTCCAAC,-0.0709 ± 0.089

row,Sequence,PBM E-score of 8-mer
1,GTGGCTTA,-0.0681 ± 0.11
2,CGGTAGGC,0.00743 ± 0.0063
3,CGTAGCAA,-0.109 ± 0.088
4,AGGGGAGA,-0.125 ± 0.0092
5,AGTGTACA,-0.0268 ± 0.0072
6,TTTTAAAA,-0.227 ± 0.021
7,TATAGTAA,-0.1429 ± 0.0002
8,CCCCCCTC,-0.318 ± 0.073
9,TAGTACGA,-0.0812 ± 0.014
10,CGAGTCGC,0.145 ± 0.018
11,AAGCGCAT,-0.179 ± 0.042
12,ACCAATTA,-0.137 ± 0.013
13,GACAACAC,0.385 ± 0.0048
14,TCCCGCAA,-0.238 ± 0.011
15,CGTGACGA,0.311 ± 0.029
16,ACACTACA,0.125 ± 0.0091
17,ACGGAGGC,-0.238 ± 0.084
18,GGAGTTGA,-0.008 ± 0.053
19,GATCACGC,0.359 ± 0.037
20,TATTACCA,-0.00451 ± 0.042
21,CTCCTAGC,-0.00411 ± 0.048
22,ACGAATAG,-0.0204 ± 0.0012
23,CCAGTAGG,0.189 ± 0.012
24,ACTCTCCG,-0.0225 ± 0.053
25,ACCCACTG,-0.181 ± 0.077

row,Sequence,PBM E-score of 8-mer
1,CAGTACCC,-0.0243 ± 0.0012
2,ACCTAAAA,-0.121 ± 0.016
3,GGCGTTCA,-0.0881 ± 0.067
4,GCGGTAGA,-0.0144 ± 0.029
5,TATACAGA,-0.215 ± 0.013
6,CGCATACA,-0.108 ± 0.035
7,ACTCTTAT,-0.0294 ± 0.038
8,TCAGGACA,-0.0721 ± 0.0019
9,CGCGTCTC,0.0854 ± 0.12
10,CATCGCAC,0.376 ± 0.019
11,GACCGTTA,0.0682 ± 0.01
12,AGTGTTTC,0.141 ± 0.03
13,TGCTCACA,0.3801 ± 0.0011
14,AGTTGAAC,-0.00466 ± 0.11
15,ATACTCGG,0.0184 ± 0.02
16,AAGAATAC,-0.12 ± 0.087
17,GACAATTA,0.029 ± 0.11
18,ACGAGGCG,0.127 ± 0.053
19,CCGAGGAG,-0.101 ± 0.019
20,CGGAGTAG,-0.211 ± 0.031
21,AGATAGCT,0.00722 ± 0.035
22,ACTGTGTC,0.173 ± 0.034
23,ACGAACAA,0.0508 ± 0.036
24,AATTAGGG,-0.173 ± 0.016
25,AGTGTAAC,0.24 ± 0.014

row,Sequence,PBM E-score of 8-mer
1,CACGCACA,0.207 ± 0.016
2,GCCACACA,0.335 ± 0.0096
3,GAAGAATA,-0.131 ± 0.0024
4,CGGGGACG,-0.082 ± 0.012
5,AGGGAGCC,-0.14 ± 0.027
6,ACAATCAC,0.187 ± 0.051
7,CTGGCTAA,-0.0662 ± 0.039
8,CAATGGTA,-0.0293 ± 0.0032
9,GCAGGCGC,0.172 ± 0.029
10,ATTCGAAC,-0.178 ± 0.018
11,GCGCACGC,0.201 ± 0.042
12,TGGATGAA,-0.1666 ± 0.0014
13,ACTTACGC,0.142 ± 0.009
14,CGCCCCCG,-0.161 ± 0.043
15,GACTCTGA,-0.0787 ± 0.071
16,GTCGGGGA,-0.0893 ± 0.0039
17,AAGGCCCC,-0.291 ± 0.089
18,GACCAGAA,-0.0976 ± 0.044
19,GCGAGGCC,0.227 ± 0.045
